This note sets out measurements from PMC6212790.

The other results are listed elsewhere or left out. At the low end of the ranking the order means little.

The assay addresses T1, GST-Rok (full length) (UniProt O34857).
T1 sequence: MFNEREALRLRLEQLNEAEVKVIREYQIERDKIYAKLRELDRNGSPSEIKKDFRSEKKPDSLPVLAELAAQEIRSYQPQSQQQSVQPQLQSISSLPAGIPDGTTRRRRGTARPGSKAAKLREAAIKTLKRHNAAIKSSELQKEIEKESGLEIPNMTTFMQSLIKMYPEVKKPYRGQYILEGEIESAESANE
The experiment in a line: protein binding microarray.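 Note: rank score from −0.5 (least bound) to 0.5 (best bound).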 To be noted: Rok is a gene silencer of Bacillus subtilis; high values mean tight binding; most listed sequences are background and not binding sites; double strand, one strand shown.
Take ACAGGGAT: the binding signal is -0.0596 E-score.

Take GGGTGGAC: the binding signal was -0.379 E-score.

Regarding GCCGGCGA, the binding signal is -0.312 E-score.

As to CACACCCG, the binding signal is -0.293 E-score.

For the sequence CAGTTAAG, the binding signal was -0.054 E-score.

As for AAGATTTC, the binding signal came to 0.113 E-score.

In turn, AGGTCTAC gave a binding signal of 0.0332 E-score.

AGCAATCC had a binding signal of 0.0127 E-score.

Regarding CGTCATCA, the binding signal is -0.185 E-score.

For AGAATGCG, the binding signal worked out at 0.0578 E-score.

Sequence CGTACAAA yielded a binding signal of 0.194 E-score.

CTGTGGCA: the binding signal is -0.207 E-score.

Regarding AACGGGTA, the binding signal is -0.0103 E-score.

CCACTTCG returned a binding signal of -0.0384 E-score.

On to ACGTCCAG, for which the binding signal was -0.000994 E-score.

The sequence GCAATTGC returned a binding signal of 0.146 E-score.

As for CCTATCGA, the binding signal turned out to be 0.144 E-score.

For GGGTACAC, the binding signal is -0.207 E-score.

Sequence CCGCCAGA showed a binding signal of -0.268 E-score.

Sequence GGGTGAGA came in with a binding signal of -0.126 E-score.

For AGCCTCAG, the binding signal was -0.214 E-score.

In turn, CACGATGC had a binding signal of 0.0284 E-score.

CACATCGG showed a binding signal of -0.177 E-score.

The sequence ATGGATCG displayed a binding signal of 0.0845 E-score.

Sequence GCAACCCA yielded a binding signal of -0.00137 E-score.

The sequence ATGTGGTC registered a binding signal of -0.125 E-score.

Take AGGATTAA: the binding signal is 0.0191 E-score.

For GCGCGACA, the binding signal amounted to 0.021 E-score.

GCGATGAC: the binding signal was -0.0125 E-score.

ACACACTC displayed a binding signal of 0.000516 E-score.

ACGATCTC showed a binding signal of -0.146 E-score.

In the case of AATATCAG, the binding signal turned out to be 0.151 E-score.

In turn, ACACTACT displayed a binding signal of 0.236 E-score.

TACCGGGA: the binding signal was -0.00971 E-score.

CACACTCC registered a binding signal of -0.243 E-score.

The sequence CTATGGCC displayed a binding signal of -0.0832 E-score.

GATACGGC displayed a binding signal of -0.136 E-score.

CACCAAAC registered a binding signal of 0.182 E-score.

Turning to AAGGTTCT, the binding signal was -0.0946 E-score.

Take CAACATCG: the binding signal turned out to be 0.0482 E-score.

The sequence AGCAGTAA had a binding signal of 0.161 E-score.

In turn, CAATCCTG displayed a binding signal of -0.0381 E-score.

In turn, ACCAGGGT gave a binding signal of -0.133 E-score.

As to GGTGGAGA, the binding signal is -0.0713 E-score.

Sequence CCTCCTTC displayed a binding signal of -0.309 E-score.

The sequence TGTCCAAA displayed a binding signal of 0.0695 E-score.

ATCTAACC had a binding signal of 0.0779 E-score.

TCAGTCCA showed a binding signal of -0.23 E-score.

The sequence AAACCTGG displayed a binding signal of -0.0374 E-score.

For the sequence GAAGGTAA, the binding signal stood at 0.0269 E-score.

Sequence TAAATTTA registered a binding signal of 0.361 E-score.

ACGTGGTA gave a binding signal of 0.162 E-score.

For the sequence AGGGACGC, the binding signal was -0.339 E-score.

AGACTGTG: the binding signal is -0.176 E-score.

CCCGGGCG displayed a binding signal of -0.401 E-score.

TCACGGAA had a binding signal of -0.0608 E-score.

The sequence ACATTCGT had a binding signal of 0.0978 E-score.

On to ACGGTACA, for which the binding signal worked out at 0.198 E-score.

For AAGTAGGC, the binding signal was -0.0183 E-score.

CTAGGGAG registered a binding signal of -0.242 E-score.

For the sequence GAGGACTA, the binding signal is -0.113 E-score.

Sequence GACATGTA had a binding signal of 0.192 E-score.

Sequence CCTCCAGA gave a binding signal of -0.168 E-score.

For the sequence GGGGGTAC, the binding signal is -0.313 E-score.

Sequence ACAGCCAC returned a binding signal of -0.129 E-score.

CTCTCGCA: the binding signal is -0.26 E-score.

Regarding CCTGATCG, the binding signal is -0.00357 E-score.

TATAAATA had a binding signal of 0.397 E-score.

For AGGAGCCC, the binding signal was -0.365 E-score.

In the case of TCAGGAAA, the binding signal was -0.0718 E-score.

In turn, AAATTCGC displayed a binding signal of 0.0646 E-score.

Sequence TCGAACGA yielded a binding signal of 0.0918 E-score.

On to AGATTGTC, for which the binding signal turned out to be 0.135 E-score.

CGATTGGA returned a binding signal of -0.267 E-score.

For AATTCGTA, the binding signal was 0.263 E-score.

As to CTCCATTC, the binding signal was found to be 0.0472 E-score.

Sequence TAAGTCAA showed a binding signal of 0.0333 E-score.

For the sequence GAGCGGTA, the binding signal is 0.0846 E-score.

On to AGGACATG, for which the binding signal is -0.123 E-score.

In turn, AGTACGCA came in with a binding signal of 0.194 E-score.

Consider TGGGATAA, for which the binding signal is -0.0466 E-score.

Take CACCTATC: the binding signal was found to be 0.0598 E-score.

For the sequence ACTTAGAA, the binding signal turned out to be 0.142 E-score.

Sequence CACACGAC yielded a binding signal of 0.0625 E-score.

Sequence CCCATCGG came in with a binding signal of -0.38 E-score.

For ACACTTAG, the binding signal stood at 0.198 E-score.

ACTAGCGG: the binding signal turned out to be 0.188 E-score.

Take CTTGTCAA: the binding signal was found to be 0.000136 E-score.

GACTTATA: the binding signal was 0.257 E-score.

Sequence CTCGTAGA showed a binding signal of 0.106 E-score.

AAATGTAC yielded a binding signal of 0.343 E-score.

ACTCAGTC: the binding signal is -0.104 E-score.

Regarding TGCGTACA, the binding signal came to 0.0261 E-score.

The sequence CCCCATGA returned a binding signal of -0.154 E-score.

In turn, AGCGGCGA came in with a binding signal of -0.0194 E-score.

CCAACCAA had a binding signal of -0.0363 E-score.

In turn, GGACCGCC displayed a binding signal of -0.414 E-score.

As for ATAGGGAC, the binding signal is -0.122 E-score.

As for CTGATGAC, the binding signal is -0.227 E-score.

For the sequence GAAACACC, the binding signal was -0.144 E-score.

On to CAACAAAG, for which the binding signal is 0.0451 E-score.

With CGATTGAA, the binding signal was determined as 0.0995 E-score.

ATTCCTTC: the binding signal is -0.0807 E-score.

For the sequence CTACTGGC, the binding signal stood at 0.016 E-score.

Sequence ATCATACG gave a binding signal of 0.162 E-score.

Consider GGTCTTCA, for which the binding signal is -0.177 E-score.

Consider GGGTAGTA, for which the binding signal amounted to 0.238 E-score.

GAGTGTGA: the binding signal was 0.079 E-score.

Consider ACGGTTCG, for which the binding signal was -0.0124 E-score.

Take CCGAGACC: the binding signal is -0.247 E-score.

Sequence ATAATTAG had a binding signal of 0.317 E-score.

GAGAAGTA displayed a binding signal of 0.219 E-score.

ATGGCTCG showed a binding signal of -0.0233 E-score.

In turn, CAAGTCTC came in with a binding signal of -0.311 E-score.

AAACGTCG yielded a binding signal of -0.134 E-score.

In turn, ATTCCTAA had a binding signal of 0.0277 E-score.

The sequence AGGCTAAG returned a binding signal of -0.154 E-score.

With AGCGGGCG, the binding signal was -0.392 E-score.

In the case of CCCGCGGG, the binding signal was -0.305 E-score.

Regarding AACGTGAG, the binding signal worked out at 0.00804 E-score.

ACAGAACA had a binding signal of -0.147 E-score.

As to ACTTCGCC, the binding signal came to 0.0315 E-score.

AAAACGCG showed a binding signal of -0.0623 E-score.

Consider ACGTGTAA, for which the binding signal was found to be 0.103 E-score.

GCCCCCAA gave a binding signal of -0.255 E-score.

AAACACAA: the binding signal is 0.157 E-score.

ACCCCGCT displayed a binding signal of -0.246 E-score.

Take CCGCCGAA: the binding signal was -0.277 E-score.

On to CGTGTGCC, for which the binding signal is -0.181 E-score.

Regarding CCTTTTAC, the binding signal is -0.0953 E-score.

The sequence AGATTAAA registered a binding signal of 0.106 E-score.

ATATACAA displayed a binding signal of 0.389 E-score.

In turn, CCAAGTAA gave a binding signal of 0.0457 E-score.

For the sequence ATGCGTGA, the binding signal was -0.0429 E-score.

For the sequence ATGAAGTG, the binding signal was -0.129 E-score.

In the case of ATTTCCGC, the binding signal was determined as 0.0588 E-score.

CGGATCGC came in with a binding signal of -0.241 E-score.

AACCCATT registered a binding signal of 0.108 E-score.

ACGTACGT gave a binding signal of 0.0831 E-score.

As to ATTACCTG, the binding signal is 0.126 E-score.

In the case of ACACGTCC, the binding signal was -0.187 E-score.

For the sequence AAGAGGGT, the binding signal is -0.186 E-score.

Consider CATCCTGC, for which the binding signal is -0.116 E-score.

TGAGATCA: the binding signal amounted to 0.0366 E-score.

The sequence ATGCACAA gave a binding signal of 0.0999 E-score.

In the case of ACCGCTTA, the binding signal was -0.0233 E-score.

TGTATAAA gave a binding signal of 0.267 E-score.

For the sequence ACACCTAA, the binding signal came to 0.199 E-score.

In turn, AATCAGAT showed a binding signal of -0.108 E-score.

Turning to CAATCAAG, the binding signal was -0.0294 E-score.

Take ATATTCAG: the binding signal was 0.1 E-score.

Sequence ATCACATG yielded a binding signal of 0.0965 E-score.

In turn, CATTAAGC showed a binding signal of -0.00344 E-score.

GGTGGGAA returned a binding signal of 0.00996 E-score.

Sequence ACCACGCT gave a binding signal of -0.0407 E-score.

CAAGTGCC showed a binding signal of -0.231 E-score.

Consider TAAGGTGA, for which the binding signal is -0.0719 E-score.

AATCGCCA displayed a binding signal of 0.0424 E-score.

ATTTGTGG displayed a binding signal of 0.111 E-score.

Take GCTACCCA: the binding signal is -0.0944 E-score.

Turning to AACATCCG, the binding signal is -0.00657 E-score.

Sequence AACACTAT showed a binding signal of 0.259 E-score.

Regarding ATACGTAA, the binding signal was found to be 0.323 E-score.

The sequence ACTCGACA showed a binding signal of -0.00791 E-score.

As for AGTTTGGG, the binding signal was -0.00909 E-score.

For the sequence CGCCGACA, the binding signal is -0.0606 E-score.

In the case of TCCGGACA, the binding signal is -0.14 E-score.

GGTCCCGA: the binding signal is -0.0815 E-score.

In turn, AAAAAAGA registered a binding signal of -0.0517 E-score.

CCCGGAAC showed a binding signal of -0.25 E-score.

On to CCCTCTTA, for which the binding signal was -0.246 E-score.

On to GTACCGTA, for which the binding signal amounted to 0.149 E-score.
